From the supplement of paper PMC8728848
This is one part of the list.

What was measured:
Assay in all cases: glycan array binding signal (z-score within array); higher = stronger binding
Conditions in all cases: glycan notation: IUPAC condensed, linker removed
[1] = target: Fuc(a1-2)Gal6S(b1-3)GlcNAc
In short: (§1)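 The Consortium for Functional Glycomics database supplied 3228 glycan arrays, of which those lacking an available protein sequence were dropped. The binding signal, a within-array Z-score, was averaged across arrays of the same protein sequence and across linkers. Negative scores can be read as non-binding.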

[2] = target: Fuc(a1-2)Gal6S(b1-3)GlcNAc6S
In short: as §1

Fuc(a1-2)Gal6S(b1-4)Glc = target: Fuc(a1-2)Gal6S(b1-4)Glc
In short: as §1

[3] = target: Fuc(a1-2)Gal6S(b1-4)Glc6S
In short: as §1

Fuc(a1-2)[Gal(a1-3)]Gal = target: Fuc(a1-2)[Gal(a1-3)]Gal
In short: as §1

[4] = target: Fuc(a1-2)[Gal(a1-3)]Gal(b1-3)GalNAc
In short: as §1

[5] = target: Fuc(a1-2)[Gal(a1-3)]Gal(b1-3)GalNAc(b1-3)Gal(a1-4)Gal(b1-4)Glc
In short: as §1

[6] = target: Fuc(a1-2)[Gal(a1-3)]Gal(b1-3)GlcNAc
In short: as §1

[7] = target: Fuc(a1-2)[Gal(a1-3)]Gal(b1-3)GlcNAc(b1-2)Man(a1-3)[Fuc(a1-2)[Gal(a1-3)]Gal(b1-3)GlcNAc(b1-2)Man(a1-6)]Man(b1-4)GlcNAc(b1-4)GlcNAc
In short: as §1

[8] = target: Fuc(a1-2)[Gal(a1-3)]Gal(b1-3)GlcNAc(b1-2)Man(a1-3)[Fuc(a1-2)[Gal(a1-3)]Gal(b1-3)GlcNAc(b1-2)Man(a1-6)]Man(b1-4)GlcNAc(b1-4)[Fuc(a1-6)]GlcNAc
In short: as §1

[9] = target: Fuc(a1-2)[Gal(a1-3)]Gal(b1-3)GlcNAc(b1-3)GalNAc
In short: as §1

[10] = target: Fuc(a1-2)[Gal(a1-3)]Gal(b1-3)GlcNAc(b1-6)GalNAc
In short: as §1

[11] = target: Fuc(a1-2)[Gal(a1-3)]Gal(b1-4)Glc
In short: as §1

[12] = target: Fuc(a1-2)[Gal(a1-3)]Gal(b1-4)GlcNAc
In short: as §1

[13] = target: Fuc(a1-2)[Gal(a1-3)]Gal(b1-4)GlcNAc(b1-2)Man
In short: as §1

[14] = target: Fuc(a1-2)[Gal(a1-3)]Gal(b1-4)GlcNAc(b1-2)Man(a1-3)[Fuc(a1-2)[Gal(a1-3)]Gal(b1-4)GlcNAc(b1-2)Man(a1-6)]Man(b1-4)GlcNAc(b1-4)GlcNAc
In short: as §1

[15] = target: Fuc(a1-2)[Gal(a1-3)]Gal(b1-4)GlcNAc(b1-2)Man(a1-3)[Fuc(a1-2)[Gal(a1-3)]Gal(b1-4)GlcNAc(b1-2)Man(a1-6)]Man(b1-4)GlcNAc(b1-4)[Fuc(a1-6)]GlcNAc
In short: as §1

[16] = target: Fuc(a1-2)[Gal(a1-3)]Gal(b1-4)GlcNAc(b1-3)GalNAc
In short: as §1

[17] = target: Fuc(a1-2)[Gal(a1-3)]Gal(b1-4)GlcNAc(b1-3)[Fuc(a1-2)[Gal(a1-3)]Gal(b1-4)GlcNAc(b1-6)]GalNAc
In short: as §1

[18] = target: Fuc(a1-2)[Gal(a1-3)]Gal(b1-4)GlcNAc(b1-6)GalNAc
In short: as §1

[19] = target: Fuc(a1-2)[Gal(a1-3)]Gal(b1-4)[Fuc(a1-3)]Glc
In short: as §1

[20] = target: Fuc(a1-2)[Gal(a1-3)]Gal(b1-4)[Fuc(a1-3)]GlcNAc
In short: as §1

[21] = target: Fuc(a1-2)[Gal(a1-3)]Gal(b1-4)[Fuc(a1-3)]GlcNAc(b1-3)GalNAc
In short: as §1

[22] = target: Fuc(a1-2)[Gal(a1-4)]Gal(b1-4)GlcNAc
In short: as §1

[23] = target: Fuc(a1-2)[GalNAc(a1-3)]Gal
In short: as §1

[24] = target: Fuc(a1-2)[GalNAc(a1-3)]Gal(b1-3)GalNAc(a1-3)[Fuc(a1-2)]Gal(b1-4)GlcNAc
In short: as §1

[25] = target: Fuc(a1-2)[GalNAc(a1-3)]Gal(b1-3)GalNAc(b1-3)Gal(a1-4)Gal(b1-4)Glc
In short: as §1

[26] = target: Fuc(a1-2)[GalNAc(a1-3)]Gal(b1-3)GlcNAc
In short: as §1

[27] = target: Fuc(a1-2)[GalNAc(a1-3)]Gal(b1-3)GlcNAc(b1-2)Man(a1-3)[Fuc(a1-2)[GalNAc(a1-3)]Gal(b1-3)GlcNAc(b1-2)Man(a1-6)]Man(b1-4)GlcNAc(b1-4)GlcNAc
In short: as §1

[28] = target: Fuc(a1-2)[GalNAc(a1-3)]Gal(b1-3)GlcNAc(b1-2)Man(a1-3)[Fuc(a1-2)[GalNAc(a1-3)]Gal(b1-3)GlcNAc(b1-2)Man(a1-6)]Man(b1-4)GlcNAc(b1-4)[Fuc(a1-6)]GlcNAc
In short: as §1

[29] = target: Fuc(a1-2)[GalNAc(a1-3)]Gal(b1-3)GlcNAc(b1-3)GalNAc
In short: as §1

[30] = target: Fuc(a1-2)[GalNAc(a1-3)]Gal(b1-3)GlcNAc(b1-6)GalNAc
In short: as §1

[31] = target: Fuc(a1-2)[GalNAc(a1-3)]Gal(b1-4)Glc
In short: as §1

[32] = target: Fuc(a1-2)[GalNAc(a1-3)]Gal(b1-4)GlcNAc
In short: as §1

[33] = target: Fuc(a1-2)[GalNAc(a1-3)]Gal(b1-4)GlcNAc(b1-2)Man
In short: as §1

[34] = target: Fuc(a1-2)[GalNAc(a1-3)]Gal(b1-4)GlcNAc(b1-2)Man(a1-3)[Fuc(a1-2)[GalNAc(a1-3)]Gal(b1-4)GlcNAc(b1-2)Man(a1-6)]Man(b1-4)GlcNAc(b1-4)GlcNAc
In short: as §1

[35] = target: Fuc(a1-2)[GalNAc(a1-3)]Gal(b1-4)GlcNAc(b1-2)Man(a1-3)[Fuc(a1-2)[GalNAc(a1-3)]Gal(b1-4)GlcNAc(b1-2)Man(a1-6)]Man(b1-4)GlcNAc(b1-4)[Fuc(a1-6)]GlcNAc
In short: as §1

[36] = target: Fuc(a1-2)[GalNAc(a1-3)]Gal(b1-4)GlcNAc(b1-3)Gal(b1-4)GlcNAc
In short: as §1

[37] = target: Fuc(a1-2)[GalNAc(a1-3)]Gal(b1-4)GlcNAc(b1-3)Gal(b1-4)GlcNAc(b1-3)Gal(b1-4)GlcNAc
In short: as §1

[38] = target: Fuc(a1-2)[GalNAc(a1-3)]Gal(b1-4)GlcNAc(b1-3)GalNAc
In short: as §1

[39] = target: Fuc(a1-2)[GalNAc(a1-3)]Gal(b1-4)GlcNAc(b1-3)[Fuc(a1-2)[GalNAc(a1-3)]Gal(b1-4)GlcNAc(b1-6)]GalNAc
In short: as §1

[40] = target: Fuc(a1-2)[GalNAc(a1-3)]Gal(b1-4)GlcNAc(b1-6)GalNAc
In short: as §1

[41] = target: Fuc(a1-2)[GalNAc(a1-3)]Gal(b1-4)[Fuc(a1-3)]GlcNAc
In short: as §1

[42] = target: Fuc(a1-2)[GalNAc(a1-3)]Gal(b1-4)[Fuc(a1-3)]GlcNAc(b1-3)GalNAc
In short: as §1

[43] = target: Fuc(a1-2)[GalNAc(a1-4)]Gal(b1-4)GlcNAc
In short: as §1

B1: EPL1 (Trichoderma atroviride), A0PCX2 (protein)
chain: MQLSNLFKLALFTAAVSADTVSYDTGYDDASRSLTVVSCSDGTNGLITRYHWQTQGQIPRFPYIGGAQAVAGWNSPNCGTCWKLTYSGKTIYVLAIDHTAAGFNIGLDAMNALTNGNAVALGRVSATASQVAVSNCGL
- glycan array binding signal (z-score) [1]: -0.249
- glycan array binding signal (z-score) [2]: -0.166
- glycan array binding signal (z-score) (Fuc(a1-2)Gal6S(b1-4)Glc): -0.288
- glycan array binding signal (z-score) [3]: -0.303
- glycan array binding signal (z-score) (Fuc(a1-2)[Gal(a1-3)]Gal): 0.001
- glycan array binding signal (z-score) [4]: 0.754
- glycan array binding signal (z-score) [5]: -0.133
- glycan array binding signal (z-score) [6]: 0.419
- glycan array binding signal (z-score) [7]: 0.143
- glycan array binding signal (z-score) [8]: 0.105
- glycan array binding signal (z-score) [9]: -0.099
- glycan array binding signal (z-score) [10]: -0.471
- glycan array binding signal (z-score) [11]: 0.26
- glycan array binding signal (z-score) [12]: -0.234
- glycan array binding signal (z-score) [13]: -0.094
- glycan array binding signal (z-score) [14]: 0.098
- glycan array binding signal (z-score) [15]: 0.306
- glycan array binding signal (z-score) [16]: -0.548
- glycan array binding signal (z-score) [17]: 0.418
- glycan array binding signal (z-score) [18]: -0.313
- glycan array binding signal (z-score) [19]: -0.166
- glycan array binding signal (z-score) [20]: -0.242
- glycan array binding signal (z-score) [21]: -0.384
- glycan array binding signal (z-score) [22]: 0.195
- glycan array binding signal (z-score) [23]: 0.127
- glycan array binding signal (z-score) [24]: -0.071
- glycan array binding signal (z-score) [25]: 0.036
- glycan array binding signal (z-score) [26]: -0.19
- glycan array binding signal (z-score) [27]: -0.449
- glycan array binding signal (z-score) [28]: -0.127
- glycan array binding signal (z-score) [29]: 0.168
- glycan array binding signal (z-score) [30]: -0.414
- glycan array binding signal (z-score) [31]: -0.489
- glycan array binding signal (z-score) [32]: 0.016
- glycan array binding signal (z-score) [33]: -0.166
- glycan array binding signal (z-score) [34]: 0.028
- glycan array binding signal (z-score) [35]: -0.37
- glycan array binding signal (z-score) [36]: 0.527
- glycan array binding signal (z-score) [37]: -0.032
- glycan array binding signal (z-score) [38]: -0.147
- glycan array binding signal (z-score) [39]: -0.319
- glycan array binding signal (z-score) [40]: 0.07
- glycan array binding signal (z-score) [41]: -0.307
- glycan array binding signal (z-score) [42]: 21.1
- glycan array binding signal (z-score) [43]: 0.107
